The source of these data is article PMC4336329 (PLoS ONE, 2015).

Among all 310,000 compounds or so, about 2,200 (0.71%) showed an effect of 50% or more. The effect is printed as a negative number. The list shows a part of the results.

The target of the assay is human ether-à-go-go-related gene (hERG) potassium channel (human, UniProt Q12809). Nature of the assay: primary screen, population patch clamp on CHO cells stably expressing hERG.
human ether-à-go-go-related gene (hERG) potassium channel, sequence (Q12809 whole entry, looked up): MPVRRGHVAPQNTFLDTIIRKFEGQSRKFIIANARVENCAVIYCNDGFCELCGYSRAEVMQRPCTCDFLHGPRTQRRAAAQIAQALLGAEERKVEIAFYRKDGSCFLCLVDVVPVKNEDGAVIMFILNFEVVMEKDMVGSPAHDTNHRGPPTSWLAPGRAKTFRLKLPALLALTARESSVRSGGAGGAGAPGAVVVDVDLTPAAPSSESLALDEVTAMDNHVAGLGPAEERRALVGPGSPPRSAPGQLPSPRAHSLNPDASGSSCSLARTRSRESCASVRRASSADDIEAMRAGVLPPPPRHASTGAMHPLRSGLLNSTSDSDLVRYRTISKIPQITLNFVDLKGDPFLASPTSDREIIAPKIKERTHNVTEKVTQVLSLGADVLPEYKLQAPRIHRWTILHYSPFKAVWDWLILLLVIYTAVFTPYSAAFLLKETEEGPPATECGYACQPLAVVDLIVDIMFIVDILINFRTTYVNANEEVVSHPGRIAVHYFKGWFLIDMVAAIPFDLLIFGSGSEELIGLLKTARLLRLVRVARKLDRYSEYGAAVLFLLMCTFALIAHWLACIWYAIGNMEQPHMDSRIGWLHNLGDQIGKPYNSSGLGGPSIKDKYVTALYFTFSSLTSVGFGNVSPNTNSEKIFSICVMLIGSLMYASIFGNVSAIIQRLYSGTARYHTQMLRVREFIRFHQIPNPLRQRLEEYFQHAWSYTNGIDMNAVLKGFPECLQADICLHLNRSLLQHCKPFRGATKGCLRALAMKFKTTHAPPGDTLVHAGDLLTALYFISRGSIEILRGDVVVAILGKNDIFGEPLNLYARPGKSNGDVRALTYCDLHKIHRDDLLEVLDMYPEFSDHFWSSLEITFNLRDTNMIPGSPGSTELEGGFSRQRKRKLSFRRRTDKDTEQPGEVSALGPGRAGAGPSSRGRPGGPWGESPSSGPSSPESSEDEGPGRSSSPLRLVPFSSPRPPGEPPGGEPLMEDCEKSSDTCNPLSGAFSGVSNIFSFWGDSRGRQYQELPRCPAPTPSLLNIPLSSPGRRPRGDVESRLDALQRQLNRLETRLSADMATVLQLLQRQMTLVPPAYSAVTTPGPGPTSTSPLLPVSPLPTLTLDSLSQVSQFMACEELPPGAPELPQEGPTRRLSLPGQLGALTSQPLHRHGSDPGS
In the case of `CC[C@@H]1[C@H]2CCCC(=O)N3CC[C@@H](C[C@@H]1Nc1ccccc1)[C@@H]23`, the “hERG current change (%, negative = inhibition) at 1uM” value is given as 7.12%.

With `CCOC(=O)Cn1nnnc1CN(Cc1ccccc1)Cc1cc2cc(CC)ccc2[nH]c1=O`, the “hERG current change (%, negative = inhibition) at 1uM” value was 0.922%.

`COc1ccc(-n2nc3c(c2NC(=O)C2CCCC2)CS(=O)C3)cc1` (centres unmarked): the “hERG current change (%, negative = inhibition) at 1uM” value came out at 4.73%.

Turning to `O=C(OCC(=O)N1CCCC1)c1ccc(NS(=O)(=O)c2cccs2)cc1O`, the “hERG current change (%, negative = inhibition) at 1uM” value was 11.4%.

Regarding `O=C(NNC(=O)C1CCN(S(=O)(=O)c2cccc(Cl)c2)CC1)C1CC1`, the “hERG current change (%, negative = inhibition) at 1uM” value came out at 5.65%.

With `COc1ccc(-c2csc(NC(C)=O)n2)cc1OC`, the “hERG current change (%, negative = inhibition) at 1uM” value stood at 8.54%.

For the molecule `Cn1c(SCC(=O)NCc2ccco2)nnc1-c1cccs1`, the “hERG current change (%, negative = inhibition) at 1uM” value is given as 8.99%.

Regarding `Cc1c(S(=O)(=O)Nc2cc(Cl)ccc2Cl)c(=O)n(C)c(=O)n1C`, the “hERG current change (%, negative = inhibition) at 1uM” value was found to be 7.07%.

Turning to `O=C(CSc1nc2c(sc3ccccc32)c(=O)n1CCO)NCC1CCCO1` (centres unmarked), the “hERG current change (%, negative = inhibition) at 1uM” value is recorded as -2.95%.

For `Cc1cccc(NNC(=S)Nc2c(C)cccc2C)c1`, the “hERG current change (%, negative = inhibition) at 1uM” value stood at 8.49%.

For `COc1ccc(C2NC(=O)NC(C)=C2C(C)=O)cc1` (centres unmarked), the “hERG current change (%, negative = inhibition) at 1uM” value came out at 11.4%.

`CC1CN(Cc2nc3c(c(=O)n(C)c(=O)n3C)n2CCCc2ccccc2)CC(C)O1` (centres unmarked): the “hERG current change (%, negative = inhibition) at 1uM” value is listed as -1.5%.

Consider `CCOP(=O)(OCC)C(NC(=O)c1cc([N+](=O)[O-])cc([N+](=O)[O-])c1)C(F)(F)F` (centres unmarked), for which the “hERG current change (%, negative = inhibition) at 1uM” value was 8.16%.

Take `CCC(C)(C)n1nnnc1C(c1ccccc1)N1CCN(C2CCCC2)CC1` (centres unmarked): the “hERG current change (%, negative = inhibition) at 1uM” value worked out at 6.06%.

In the case of `CCOC(=O)c1c(C)[nH]c(C)c1C(=O)CN1C(=O)NC2(CCCCCC2)C1=O`, the “hERG current change (%, negative = inhibition) at 1uM” value is recorded as 11.4%.

Regarding `CCOC(=O)CCCSc1nc(-c2ccc3c(c2)OCO3)cc(C(F)(F)F)c1C#N`, the “hERG current change (%, negative = inhibition) at 1uM” value was found to be 6.95%.

`CN(C)C(=O)N1CCN(C(=O)c2ccccc2Sc2ccccc2C#N)CC1`: the “hERG current change (%, negative = inhibition) at 1uM” value worked out at 1.19%.

For `Cc1c(CC(=O)N2CCC(C(=O)O)CC2)c(=O)oc2cc3c(cc12)CCC1(CCCCC1)O3`, the “hERG current change (%, negative = inhibition) at 1uM” value was 3.15%.

For the molecule `Cc1ccc(C(=O)Cn2cncn2)cc1.Cl`, the “hERG current change (%, negative = inhibition) at 1uM” value is 7.78%.

For the molecule `COc1ccc(Cl)cc1NC(=O)CN(C)S(=O)(=O)c1cccs1`, the “hERG current change (%, negative = inhibition) at 1uM” value stood at 8.11%.

Turning to `O=C(c1ccco1)N1CCN(C2CC(=O)N(c3ccc(C(F)(F)F)cc3)C2=O)CC1` (centres unmarked), the “hERG current change (%, negative = inhibition) at 1uM” value is 5.64%.

For `CCCCCc1c(C)nc(Nc2nc(C)c3cc(OC)ccc3n2)[nH]c1=O`, the “hERG current change (%, negative = inhibition) at 1uM” value is recorded as 19.7%.

As for `CCc1cc(=O)oc2c(C)c(OCC(=O)NCC3CCC(C(=O)O)CC3)ccc12` (centres unmarked), the “hERG current change (%, negative = inhibition) at 1uM” value is -5.62%.

For the molecule `O=C(COC(=O)CCc1ccccc1)Nc1ccccc1OC(F)F`, the “hERG current change (%, negative = inhibition) at 1uM” value turned out to be 9.96%.

`CCCCCCn1c(N2CCCC2)nc2c1c(=O)n(C)c(=O)n2C`: the “hERG current change (%, negative = inhibition) at 1uM” value was found to be 8.32%.

As to `O=c1[nH]c(=O)n(CCC2=CCCCC2)c(O)c1/C=N/Nc1cccc2ccccc12`, the “hERG current change (%, negative = inhibition) at 1uM” value stood at 7.35%.

For the molecule `CC(=O)NC12CC3CC(C1)CC(C(=O)Nc1nc4c(C)cccc4s1)(C3)C2`, the “hERG current change (%, negative = inhibition) at 1uM” value was 1.16%.

Turning to `COc1ccc(CCNC(=O)COC(=O)Cc2cccc3ccccc23)cc1`, the “hERG current change (%, negative = inhibition) at 1uM” value came out at 10.5%.

As for `CCC1(C)NC(=O)N(CC(=O)N2N=C(c3ccccc3)CC2c2ccc(OC)cc2)C1=O` (centres unmarked), the “hERG current change (%, negative = inhibition) at 1uM” value is recorded as -0.959%.

`S=C(NCc1ccco1)N/N=C/c1ccc(Cl)cc1`: the “hERG current change (%, negative = inhibition) at 1uM” value came out at 12.2%.

As for `Cc1ccccc1-c1ccc(=O)n(CC(=O)Nc2ccc(S(=O)(=O)N(C)C)cc2)n1`, the “hERG current change (%, negative = inhibition) at 1uM” value is reported as 13.4%.

Consider `O=C(CN1C(=O)c2cccc3cccc(c23)C1=O)NCCN1CCOCC1`, for which the “hERG current change (%, negative = inhibition) at 1uM” value is reported as 2.96%.

For the molecule `O=C(Nc1nccs1)c1cccnc1`, the “hERG current change (%, negative = inhibition) at 1uM” value was 0.456%.

Consider `COc1ccc(S(=O)(=O)N2Cc3ccccc3CC2C(=O)O)cc1OC` (centres unmarked), for which the “hERG current change (%, negative = inhibition) at 1uM” value is listed as 7.81%.

Take `O=C1Nc2ccccc2N=C(c2ccccc2)C1Br` (centres unmarked): the “hERG current change (%, negative = inhibition) at 1uM” value was 13.4%.

On to `Cn1c(=O)c2c(nc(N/N=C/c3c(O)n(C4CCCCC4)c(=S)[nH]c3=O)n2C)n(C)c1=O`, for which the “hERG current change (%, negative = inhibition) at 1uM” value is 16.6%.

On to `Cc1csc(SC(C)C(=O)Nc2ccc(S(=O)(=O)N3CCCC3)cc2)n1` (centres unmarked), for which the “hERG current change (%, negative = inhibition) at 1uM” value was -2.86%.

As for `Cc1cc(C)cc(NC(=O)c2cc(C)n(Cc3cccs3)c2C)c1`, the “hERG current change (%, negative = inhibition) at 1uM” value came to 6.93%.

As for `O=C(NCc1ccco1)c1cc(S(=O)(=O)N2CCCC2)ccc1Cl`, the “hERG current change (%, negative = inhibition) at 1uM” value is reported as 6.46%.

For `COc1c(C)cc(C(=O)C2CCCN(C(=O)c3ccoc3)C2)cc1C` (centres unmarked), the “hERG current change (%, negative = inhibition) at 1uM” value is listed as -6.91%.

As for `NS(=O)(=O)c1ccc(NC(=O)CSc2nnc(-c3ccc(O)cc3)o2)cc1`, the “hERG current change (%, negative = inhibition) at 1uM” value is reported as 19.1%.

As for `Cn1cnnc1SCC(=O)Nc1ccc(N2CCOCC2)cc1`, the “hERG current change (%, negative = inhibition) at 1uM” value is on record as 4.51%.

Consider `COc1cc(-c2nc(CN3CCCCC3CCNC(C)=O)c(C)o2)ccc1F` (centres unmarked), for which the “hERG current change (%, negative = inhibition) at 1uM” value is given as -39.4%.

As to `Oc1ccc(-c2cn3c(n2)SCC3)cc1`, the “hERG current change (%, negative = inhibition) at 1uM” value amounted to 10.6%.

`O=C1c2cnc3nc(SCc4ccc(Cl)cc4)nn3c2CC2c3ccccc3CCN12` (centres unmarked): the “hERG current change (%, negative = inhibition) at 1uM” value was -5.51%.

In the case of `CC(C)COCC1CC2(CC(C)C(=O)CC2=O)C(=O)O1` (centres unmarked), the “hERG current change (%, negative = inhibition) at 1uM” value is given as -1.38%.

Turning to `CC(=O)C1=C(O)C(=O)N(CCC(=O)O)C1c1cccc(F)c1` (centres unmarked), the “hERG current change (%, negative = inhibition) at 1uM” value is recorded as 15.7%.

Regarding `Oc1ccccc1C(=S)N1CCN(C(=S)c2ccccc2O)CC1`, the “hERG current change (%, negative = inhibition) at 1uM” value was found to be 11.8%.

Turning to `CN1CCN(S(=O)(=O)c2ccc(N3CCN(S(=O)(=O)/C=C/c4ccccc4)CC3)nc2)CC1`, the “hERG current change (%, negative = inhibition) at 1uM” value worked out at 9.61%.

As for `c1ccc(CSc2nnc(-c3ccco3)n2Cc2ccccc2)cc1`, the “hERG current change (%, negative = inhibition) at 1uM” value was -6.43%.

Turning to `CN(CCO)C(=O)c1c(NC(=O)c2ccccc2)sc2c1CCCC2`, the “hERG current change (%, negative = inhibition) at 1uM” value came out at 7.5%.

As to `CN1CCN(C(=O)CN2C(=O)NC(C)(c3ccc4ccccc4c3)C2=O)CC1` (centres unmarked), the “hERG current change (%, negative = inhibition) at 1uM” value was 6.12%.

With `Cn1c(/C=C/c2ccccc2)nc2ccccc2c1=O`, the “hERG current change (%, negative = inhibition) at 1uM” value is on record as 12.2%.

For `CCCCn1c(=O)[nH]c2nc3cc(N)ccc3nc2c1=O`, the “hERG current change (%, negative = inhibition) at 1uM” value was 7.25%.

Take `O=C(N/N=C/c1ccc2c(c1)OCO2)c1ccc(COCC(F)(F)C(F)F)cc1`: the “hERG current change (%, negative = inhibition) at 1uM” value is 9.11%.

Take `COc1ccccc1N(C)S(=O)(=O)c1ccc(Cl)c(C(=O)NCCCN2CCOCC2)c1`: the “hERG current change (%, negative = inhibition) at 1uM” value is given as 9.43%.
